Test results from PubChem BioAssay AID485298 (National Center for Advancing Translational Sciences (NCATS), 2010).
The campaign covered roughly 320,000 compounds. About 740 (0.23%) were called active. Inconclusive results (about 2%) are left out. The call rests on the fitted dose curve; in most records, active means well fitted activation curve with a large enough effect; inconclusive means small, poorly fitted or top-dose-only effect; inactive means no such curve, though single readings can be large or run the other way. The entries are a selection whose mix differs from that of the whole data set. Where no call is shown, the source filed none.

Assay: qHTS Assay for Small Molecule Inhibitors of Mitochondrial Division or Activators of Mitochondrial Fusion; further: nearly all actives have a fitted effect of over 45% in size; on growth rescue (activation): % of control where 0% means no effect
Settings: S. cerevisiae fusion-defective mutant growth rescue, CellTiterGlo 48 h; growth rescue (activation): at 46.1 µM (top of the series)
From the text: NIH Chemical Genomics Center [NCGC] NIH Molecular Libraries Probe Production centers Network [MLPCN] MLPCN Grant: MH081279-01 Assay Submitter (PI): Jodi M. Nunnari NCGC Assay Overview: The budding yeast S. cerevisiae is a powerful system to study mitochondrial fusion. Unlike other organisms, yeast cells without functional mitochondrial DNA (mtDNA) can be propagated and studied as long as they maintain a mitochondrial compartment and are provided with a fermentable carbon source. When mitochondrial fusion is blocked in yeast, mitochondrial tubules rapidly fragment and division continues unopposed. Under conditions where fusion is compromised in mammalian cells, nearly identical changes in mitochondrial structure have been observed. Thus, these findings indicate that steady state mitochondrial structure in cells is a characteristic and specific indicator of fusion activity. Mounting evidence has pointed to a connection between mitochondrial dynamics and apoptosis in mammalian cells. These studies indicate that in mammalian cells mitochondrial dynamics are more integrated into cellular processes than in yeast cells and have evolved not only to distribute the organelle but also to aid in the regulation of cellular homeostasis. Mitochondrial fusion proteins attenuate apoptosis by inhibiting the release of cytochrome c from mitochondria, in part by controlling cristae structures. Thus, small molecules that inhibit mitochondrial […] may promote apoptosis and potentially act as novel chemotherapeutics and stimulation of apoptosis has become an attractive target of anti-cancer therapies. To identify inhibitors of mitochondrial division, we exploit the growth phenotypes of mitochondrial fusion-defective mutants. The temperature sensitive fusion alleles, such as fzo1-1 and mgm1-5, cause mitochondrial membranes to fragment in cells under non-permissive conditions and cells lose mtDNA, and are unable to grow in the presence of non-fermentable carbon source glycerol. Inhibiting mitochondrial division rescues growth. We have developed and optimized a luminescence cell viability assay in 1536 well format for the identification of inhibitors in the yeast mitochondrial fusion-defective assay.
The yeast glycerol stocks where kindly supplied by the laboratory of Dr. Jodi Nunnari, University of California, Davis. All yeast glycerol stock solutions were stored in single use aliquots at -80C. The CellTiterGlo luminescence reagent, containing luciferase and luciferin, were purchased from Promega, and the reagents were stored according to manufacturer's instructions. The Buffer components for the YPEG yeast growth medium were purchased from Sigma-Aldrich (St. Louis, MO). YPEG growth medium: 1% (w/v) yeast extract, 2% (w/v) Bacto-peptone, 3% Ethanol, 3% glycerol, 0.4mM Tryptophan, 0.36mM Adenine. qHTS Assay Protocol: 1.#Dispense 2.5 ul yeast growth medium per 1536 well plate. 2.#Transfer 23 nl per well of compound to plate. 3.#Dispense 2.5 ul yeast solution at appropriate seeding density per well. 4.#Incubate for 48 hours at 37C. 5.#Dispense 5 ul of CellTiterGlow solution per well. 6.#Incubate at ambient for 10 minutes. 7.#Read using bio-luminescence protocol on Viewlux.
Potency means the concentration at half of the fitted maximal effect.

SMILES | growth rescue (activation) | Potency
COc1cccc(CNC(=O)CN2C(=O)CSc3ccc(S(=O)(=O)N4CCOCC4)cc32)c1 | 14.2% | –
Cc1cc(=O)n2[nH]c(-c3sccc3-n3c(C)ccc3C)cc2n1 | 7.07% | –
C=CCNC(=O)N1CCC(n2nccc2NC(=O)CCCc2ccccc2)CC1 | 17.2% | –
Cc1ccc(C(=O)Oc2cccc(NC(=O)c3ccccc3)c2)cc1C | – | active: 10 µM
Cn1c(CNC(=O)C(Cc2ccccc2)NC(=O)c2ccccc2)cc(=O)n(C)c1=O (configuration not stated) | 53.1% | –
C=CCOc1ccc(/C=C2/C(=N)N3N=C(CC(=O)N4CCCC4)SC3=NC2=O)cc1OC | 4.51% | –
O=C(CCc1ccc(O)cc1)c1c(O)cc(O)cc1O | inactive: 7.16% | –
COc1ccc(NC(=S)NC(=O)c2ccccc2Cl)cc1 | 26.6% | –
COc1ccc(NC(=O)C2CCCN(c3cnccn3)C2)c(OC)c1 (configuration not stated) | 17.5% | –
C=C1C(=O)C=C[C@]2(C)C[C@@H]3OC(=O)[C@](C)(O)[C@H]3C[C@@H]12 | inactive: -43.6% | –
CC1(C)CC(O)CC(C)(C)N1CC(O)COCc1ccccc1 (configuration not stated) | 9.76% | –
COc1ccc(C(=O)OCC(=O)Nc2cccc(C(C)=O)c2)cc1OC | 25.2% | –
COc1cc(Nc2ccccn2)cc(C(=O)Nc2cccc(C(F)(F)F)c2)c1 | inactive: -133% | –
FC(F)Oc1ccc(NC(=S)NC2CCCCCCC2)cc1 | inactive: -47.8% | –
COC(=O)CN(C(=O)CSc1nnc(-c2cccc(OC)c2)o1)c1ccc(OC)cc1 | inactive: -30.6% | –
Cc1nn(CC(=O)N2CCN(c3cccc(C(F)(F)F)c3)CC2)c(=O)c2cccn12 | 15.4% | –
O=C(Nc1cccc(-c2csc(Nc3ccc(Cl)cc3)n2)c1)c1cccc(C(F)(F)F)c1 | inactive: -127% | –
CC(=O)N1c2ccc(S(=O)(=O)N3CCCC3)cc2CC1C(=O)Nc1cc(C)cc(C)c1 (configuration not stated) | 28.5% | –
COc1ccc(/C=C2/C(=N)N3N=C(CC(=O)N4CCCC4)SC3=NC2=O)cc1 | 23.5% | –
Cc1ccc(-n2nc3c(=O)n(C(C)C(=O)NC4CC4)nc(C)c3c2C)cc1 (configuration not stated) | -3.29% | –
Cc1nn(C)c(NC(=O)c2ccc(Cl)cc2Cl)c1Br | 35.7% | –
COCc1cc(C)nc(OCC(=O)N/N=C/c2ccccc2)c1C#N | 12.7% | –
COc1ccc(NS(=O)(=O)c2cn(C)cn2)cc1Cl | 19.7% | –

SMILES | growth rescue (activation) | Potency
CCC(C)NC(=O)CN1C(=O)CSc2ccc(S(=O)(=O)N3CCCC3)cc21 (configuration not stated) | 10.2% | –
Cc1ccc(Sc2ccc(NC(=O)CCl)cc2)cc1C | – | active: 14.1 µM
COc1ccc(NC(=O)c2nc[nH]c2C(=O)N[C@@H](C)c2ccccc2)cc1 | inactive: 29.2% | –
CSc1ccc(-c2nc(CSCC(=O)NCCCN3CCCC3=O)c(C)o2)cc1 | 26% | –
CCC(C)(C)NC(=O)Cc1ccc(C)cc1 | 42.4% | –
COc1cccc(C(=O)Nc2cc3c(cc2N2CCOCC2)n(C)c(=O)n3C)c1 | 10.9% | –
CC(=O)c1ccc(C(=O)Nc2nnc(-c3ccc(Cl)cc3)o2)cc1 | -8.79% | –
O=C(NCCc1c[nH]c2ccccc12)c1cncc(Br)c1 | 40.3% | –
Nc1nc(Cl)nc2c1ncn2[C@@H]1O[C@H](COP(=O)(O)OP(=O)(O)OP(=O)(O)O)[C@@H](O)[C@H]1O | inactive: -48.8% | –
CC(=O)c1cccc(OCC(O)CNCC2COc3ccccc3O2)c1 (configuration not stated) | 14.9% | –
Cc1cc(OCC(=O)c2ccc(Br)cc2)ccc1N1C(=O)CCC1=O | 33.2% | –
O=C(Cc1ccccc1)Nc1ccc(S(=O)(=O)N2CCCC2)cc1 | 31.9% | –
CC(C)(C)N(Cc1ccccc1)C(=O)CSc1ncn[nH]1 | – | active: 31.6 µM
COc1ccc(CC(=O)Nc2ccccc2C(C)=O)cc1S(=O)(=O)N1CCOCC1 | inactive: 12.3% | –
C#CCOCCOCCOCCNc1nc(N2CCN(C(=O)[C@H](CCC(=O)O)n3cc(C(N)Cc4ccc(O)cc4)nn3)CC2)nc(N2CCN(C(=O)[C@H](CCCCN)n3cc(C(N)[C@H](C)CC)nn3)CC2)n1 (some centres not stated) | inactive: -65.5% | –
Fc1cccc(/C=N/Nc2ccc(Cl)nn2)c1 | 4.53% | –
CC1CCc2c(C(=O)NCC3CCCO3)csc2C1 (configuration not stated) | 51.7% | –
C/C=N/NC(=O)CCCC(=O)N/N=C/C | 21.6% | –
COc1cccc(C(=O)NCC(c2cccs2)N2CCc3ccccc32)c1 (configuration not stated) | – | active: 15.8 µM
CC(=O)c1ccc(NC(=O)c2noc3c2CCC3)cc1 | 13.4% | –
Cc1[nH]n(C(N)=S)c(=O)c1N=Nc1ccc([N+](=O)[O-])cc1Cl | inactive: -76.5% | –
CCOC(=O)CC1(NC(=O)C2CCC(=O)N(CCc3ccc(OC)cc3)C2)CCCCC1 (configuration not stated) | inactive: 18.5% | –
COC(=O)c1cc(S(=O)(=O)NCCN2CCN(c3ccccc3F)CC2)c[nH]1 | 29.9% | –

SMILES | growth rescue (activation) | Potency
Cc1oc(-c2ccccc2F)nc1CS(=O)CC(=O)NCCN1CCCCC1C (configuration not stated) | 44.9% | –
CC(C)CN(c1ccccc1)S(=O)(=O)c1nnc(NC(=O)c2ccco2)s1 | 22.8% | –
O=C(CSc1nc2ccccc2o1)Nc1nc(-c2ccccc2)cs1 | – | active: 15.8 µM
Cc1c(C(=O)N2CCOCC2)c(S(=O)(=O)Nc2cccc(F)c2)c(C)n1C | 17.2% | –
S=c1[nH]nc(-c2cc3ccccc3o2)n1Cc1ccccc1 | – | active: 14.1 µM
CC(=O)NNC(=O)CN1C(=O)/C(=C/c2ccccc2)SC1=S | 8.76% | –
COc1ccc(/C=C/C(=O)c2ccc([N+](=O)[O-])o2)cc1OC | inactive: -31% | –
COc1ccc(C2=CC(=O)C[C@H](c3ccc(OC)cc3)C2)cc1 | inactive: 23.8% | –
Cc1ccc(-c2c(C(=O)NCc3ccccc3)oc(=O)c3ccccc23)cc1 | inactive: 14% | –
O=C(CCCCCN1CCN(c2ccccc2-c2ccccc2)CC1)NC1CCCc2ccccc21 (configuration not stated) | inactive: -51.3% | –
CCOC(=O)C(C)Oc1cccc2c(=O)n(CC(=O)NCc3ccc4c(c3)OCO4)ccc12 (configuration not stated) | 22.7% | –
Cc1ccccc1-n1nc2c(c1NC(=O)c1cccs1)CS(=O)(=O)C2 | 15.7% | –
CC(=O)C1=C(O)C(=O)N(Cc2ccco2)C1c1ccccc1F (configuration not stated) | 17.5% | –
CC(C)OCCCn1c(=O)c2ccccc2n2c(CCC(=O)NC3CCN(Cc4ccccc4)CC3)nnc12 | -3.01% | –
COc1ccc(/C=N/Nc2ccc([N+](=O)[O-])cc2)cc1O | inactive: -36.3% | –
COc1cccc(CNC(=O)CN2C(=O)COc3ccc(S(=O)(=O)N4CCCCC4)cc32)c1 | 39.6% | –
NC(=O)CN1C(=O)C(=O)N(Cc2cccc(Cl)c2)C1=O | 26.4% | –
CCOc1ccc(CCNC(=O)CN2C(=O)c3cccnc3Oc3ccc(Cl)cc32)cc1 | 15% | –
CN(C)C(=O)c1cnc(Sc2ncc(C(F)(F)F)cc2Cl)n1C | 48.2% | –
CCc1cc(Cn2nc(-c3ccccc3)cc2C(=O)NCc2cccs2)on1 | – | active: 12.6 µM
Oc1cc(O)cc(/C=C/c2ccc(O)c(O)c2)c1 | inactive: -0.705% | –
